Here are results for 44 sequences from the supplement of paper PMC11417369.

± gives the standard deviation of the averaged measurements. Some of the results follow.

For the assay, the system named is PfAP2-LT AP2 domain (GST-tagged). Kind of assay: gcPBM binding intensity (ln(normalized median fluorescence intensity)); higher = stronger DNA binding. A digest of the protocol: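 Plasmodium falciparum DNA-binding domains carrying a GST tag were expressed in E. coli and applied for 1 h, at about 25 μg on average, to an Agilent 4 × 180k array. The array held primer-extended double-stranded 36-bp intergenic genomic probes together with negative controls, and binding took place in 1× PBS with 1% milk, 0.2 mg/ml BSA, 0.5% salmon testes DNA and 0.03% Triton X-100. An Alexa488 anti-GST antibody detected bound protein, and the array was scanned at 488 nm. Binding intensity is taken as the highest Masliner-normalised natural-log median intensity across replicate spots of either probe orientation.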
On to “AACATATATTTTTAATGTACAAGGTTGTAAAGAACT [XGTACX_site1405]”, for which the “gcPBM binding intensity (ln)” value is 8.96 ± 0.53.

Regarding “AAAGATATAAATTACTGTACTAATGAAATTGGTAAA [XGTACX_site3582]”, the “gcPBM binding intensity (ln)” value amounted to 8.57 ± 0.42.

On to “TTAAATAATGCCACCAGTACCCACTGAAAGAAAAAA [XGTACX_site5013]”, for which the “gcPBM binding intensity (ln)” value amounted to 8.82 ± 0.49.

As for “CAATTGATATTGAAATGTACTTTTTAGATGAACCTT [XGTACX_site2354]”, the “gcPBM binding intensity (ln)” value came out at 8.59 ± 0.4.

Take “TATATTAAAATTTACTGTACTTTTTTTATTTTAAAA [XGTACX_site4077]”: the “gcPBM binding intensity (ln)” value came out at 8.36 ± 0.46.

On to “AAGATAACAAGTAATCAATCTAATTATTAATTATAT [CACACA_negctrl_site1713]”, for which the “gcPBM binding intensity (ln)” value stood at 8.52 ± 0.46.

Turning to “AAAAGAAAAATGTCATATGATATCATATATTTTATA [GTGCAC_negctrl_site185]”, the “gcPBM binding intensity (ln)” value is 8.52 ± 0.49.

Consider “AAAAATATGTGATAATGTACTTTTCATTTTTATTTT [XGTACX_site8544]”, for which the “gcPBM binding intensity (ln)” value turned out to be 8.63 ± 0.46.

Regarding “ATAATTATATATATATGTACATATTATATATATATA [XGTACX_site4526]”, the “gcPBM binding intensity (ln)” value was 8.79 ± 0.33.

Regarding “ATATACATATATATATGTACTGAAAAGAAAAGAATT [XGTACX_site150]”, the “gcPBM binding intensity (ln)” value is 8.88 ± 0.39.

On to “CATAAATACATACATACACACATATTTATATTTATA [CACACA_site7071]”, for which the “gcPBM binding intensity (ln)” value was found to be 9.16 ± 0.4.

Turning to “TGTTTTTAAATTTAAATCAAAAAATAAAATAAAATA [GTGCAC_negctrl_site355]”, the “gcPBM binding intensity (ln)” value was 8.19 ± 0.46.

Take “TACATATATATAAATACACACACACCCACCTTATAA [CACACA_site9346]”: the “gcPBM binding intensity (ln)” value came out at 9.88 ± 0.15.

Consider “TTTTTATTTTATAATATATTCCTTTTCCTTTCTTTC [CACACA_negctrl_site245]”, for which the “gcPBM binding intensity (ln)” value amounted to 8.54 ± 0.69.

For the sequence “ATACATATACACATATGTACATATGAAAAGAAAAAT [XGTACX_site6445]”, the “gcPBM binding intensity (ln)” value worked out at 9.12 ± 0.47.

Consider “TTATTAGAAAAATGCACACCAAAAAAAAAAAAAAAA [CACACA_site2522]”, for which the “gcPBM binding intensity (ln)” value is 8.79 ± 0.39.

As to “TATATATATTGTGTATGTACATATATATAAATATTG [XGTACX_site433]”, the “gcPBM binding intensity (ln)” value is 8.71 ± 0.38.

Turning to “AATATAATATAATGCACACATAAACAAAAAAAAAAT [CACACA_site1304]”, the “gcPBM binding intensity (ln)” value was 9.29 ± 0.41.

As to “TTCATTTGAAAACTGTGTACTTAAAAATATACATAT [XGTACX_site176]”, the “gcPBM binding intensity (ln)” value amounted to 8.61 ± 0.44.

As for “ATATATTTAAATAAATGTACAAATCATAAATTCAAG [XGTACX_site1417]”, the “gcPBM binding intensity (ln)” value was 8.73 ± 0.42.

Regarding “TATATATTTTATTATTGTACGAATTATTTATTTTAC [XGTACX_site8105]”, the “gcPBM binding intensity (ln)” value was 8.81 ± 0.49.

As to TACATCATCTATAAGGTGCATTTTAGTTCTATTAAA, the “gcPBM binding intensity (ln)” value was 8.48 ± 0.42.

For “TTTTTTCTAATATCTTTGCCTTTTTCTTTATTTATT [CACACA_negctrl_site1053]”, the “gcPBM binding intensity (ln)” value was 8.7 ± 0.66.

Take “ATATATATATATATATGTACATATGTATGTGTTTGT [XGTACX_site397]”: the “gcPBM binding intensity (ln)” value was 9.915 ± 0.0071.

As for “TATACTCATTTTTATACACACTTGTTTTATAAAACG [CACACA_site4561]”, the “gcPBM binding intensity (ln)” value stood at 8.86 ± 0.42.

With “AAATTTATTATGAACATACACACAAAAAAAAAAAGT [CACACA_site2053]”, the “gcPBM binding intensity (ln)” value stood at 9.3 ± 0.39.

With “CTATATGTATAAAGTTGTACAGTTTTTCAAAGTTAA [XGTACX_site6652]”, the “gcPBM binding intensity (ln)” value amounted to 8.53 ± 0.43.

Consider “TACTTTTATATAGAAAGTACATACAATTCATAGAAT [XGTACX_site2182]”, for which the “gcPBM binding intensity (ln)” value amounted to 8.51 ± 0.4.

Take “TTTTTTTTTTTTTTGTGTACATATAATGCACATTAT [XGTACX_site6505]”: the “gcPBM binding intensity (ln)” value turned out to be 8.72 ± 0.45.

For the sequence “TATTGAAACCCACACGAACACACGTATTTCATAAAC [CACACA_site251]”, the “gcPBM binding intensity (ln)” value worked out at 9.05 ± 0.36.

For the sequence “TATAAAAAGCATAACACACACATGTCAATATAAATA [CACACA_site6648]”, the “gcPBM binding intensity (ln)” value amounted to 9.3 ± 0.28.

For “ATGGACATTTTATAAATCACAATGGATATTTTATAA [CACACA_negctrl_site1830]”, the “gcPBM binding intensity (ln)” value was found to be 8.41 ± 0.42.

In the case of “GTTTTACACAGACATGCATGTGAAAATTTGATGGTA [TGCATGCA_site308]”, the “gcPBM binding intensity (ln)” value was determined as 9.15 ± 0.35.

Regarding “TATCATCATGTATGTACACACATACCTATATTATGT [CACACA_site6768]”, the “gcPBM binding intensity (ln)” value turned out to be 9.38 ± 0.43.

As for “TTTATTTCTATATTTACATGCAAAGGGTTAGTTATA [TGCATGCA_site983]”, the “gcPBM binding intensity (ln)” value was 8.54 ± 0.38.

In the case of “GATCTTTTTTTTCTTACTTTACAATTTTTTTTTTAC [XGTACX_negctrl_site101]”, the “gcPBM binding intensity (ln)” value was 8.74 ± 0.53.

For “TTTTTTTTTTTCATGTGTACATATATTTTCACTTTA [XGTACX_site4475]”, the “gcPBM binding intensity (ln)” value stood at 8.94 ± 0.57.

With “AAGAAAAAGAATAGACGGACAACTAATATAAAATAT [XGTACX_site7905]”, the “gcPBM binding intensity (ln)” value was found to be 8.98 ± 0.54.

Take “AAAAGTAACAAAGCTACACACATTTAAATAAACATA [CACACA_site1421]”: the “gcPBM binding intensity (ln)” value was determined as 9.05 ± 0.5.

With “AAAATAACAAAATAAAGTACTTTTAAAAGATATAAT [XGTACX_site7632]”, the “gcPBM binding intensity (ln)” value was 8.87 ± 0.57.

Take “GATTTTCTAATTTCTACACACATATAAGAATATTCA [CACACA_site7340]”: the “gcPBM binding intensity (ln)” value was determined as 8.82 ± 0.39.

In the case of “TTTTTAATTCAAACAATAATATGTTATATTTCAAAT [TGCATGCA_negctrl_site27]”, the “gcPBM binding intensity (ln)” value was determined as 8.21 ± 0.41.

As to “TGTATAAAACATGGGTGTACTGAACTCAATCATATA [XGTACX_site1215]”, the “gcPBM binding intensity (ln)” value amounted to 8.78 ± 0.36.

“TAAAATTATATAAAGGAACACACATTTTATTTTATT [CACACA_site8423]”: the “gcPBM binding intensity (ln)” value came to 8.62 ± 0.49.
